From US10792371B2, “c-Met targeting compound-bioactive material conjugate and use thereof” (Samsung Electronics Co., Ltd., priority 2013, dated 2020)

Assays:
Conditions in all cases: rank among the four antibodies selected in Reference Example 1.7
c-Met [1] = biological target: T1, c-Met (Homo sapiens, UniProt P08581); assay: c-Met degradation degree of affinity-matured antibodies; format: cell-based
c-Met [2] = biological target: T1, c-Met; assay: Affinity for c-Met of affinity-matured antibodies; format: binding
Akt phosphorylation = Akt phosphorylation by affinity-matured antibodies; format: cell-based

T1 sequence (P08581 25-1390): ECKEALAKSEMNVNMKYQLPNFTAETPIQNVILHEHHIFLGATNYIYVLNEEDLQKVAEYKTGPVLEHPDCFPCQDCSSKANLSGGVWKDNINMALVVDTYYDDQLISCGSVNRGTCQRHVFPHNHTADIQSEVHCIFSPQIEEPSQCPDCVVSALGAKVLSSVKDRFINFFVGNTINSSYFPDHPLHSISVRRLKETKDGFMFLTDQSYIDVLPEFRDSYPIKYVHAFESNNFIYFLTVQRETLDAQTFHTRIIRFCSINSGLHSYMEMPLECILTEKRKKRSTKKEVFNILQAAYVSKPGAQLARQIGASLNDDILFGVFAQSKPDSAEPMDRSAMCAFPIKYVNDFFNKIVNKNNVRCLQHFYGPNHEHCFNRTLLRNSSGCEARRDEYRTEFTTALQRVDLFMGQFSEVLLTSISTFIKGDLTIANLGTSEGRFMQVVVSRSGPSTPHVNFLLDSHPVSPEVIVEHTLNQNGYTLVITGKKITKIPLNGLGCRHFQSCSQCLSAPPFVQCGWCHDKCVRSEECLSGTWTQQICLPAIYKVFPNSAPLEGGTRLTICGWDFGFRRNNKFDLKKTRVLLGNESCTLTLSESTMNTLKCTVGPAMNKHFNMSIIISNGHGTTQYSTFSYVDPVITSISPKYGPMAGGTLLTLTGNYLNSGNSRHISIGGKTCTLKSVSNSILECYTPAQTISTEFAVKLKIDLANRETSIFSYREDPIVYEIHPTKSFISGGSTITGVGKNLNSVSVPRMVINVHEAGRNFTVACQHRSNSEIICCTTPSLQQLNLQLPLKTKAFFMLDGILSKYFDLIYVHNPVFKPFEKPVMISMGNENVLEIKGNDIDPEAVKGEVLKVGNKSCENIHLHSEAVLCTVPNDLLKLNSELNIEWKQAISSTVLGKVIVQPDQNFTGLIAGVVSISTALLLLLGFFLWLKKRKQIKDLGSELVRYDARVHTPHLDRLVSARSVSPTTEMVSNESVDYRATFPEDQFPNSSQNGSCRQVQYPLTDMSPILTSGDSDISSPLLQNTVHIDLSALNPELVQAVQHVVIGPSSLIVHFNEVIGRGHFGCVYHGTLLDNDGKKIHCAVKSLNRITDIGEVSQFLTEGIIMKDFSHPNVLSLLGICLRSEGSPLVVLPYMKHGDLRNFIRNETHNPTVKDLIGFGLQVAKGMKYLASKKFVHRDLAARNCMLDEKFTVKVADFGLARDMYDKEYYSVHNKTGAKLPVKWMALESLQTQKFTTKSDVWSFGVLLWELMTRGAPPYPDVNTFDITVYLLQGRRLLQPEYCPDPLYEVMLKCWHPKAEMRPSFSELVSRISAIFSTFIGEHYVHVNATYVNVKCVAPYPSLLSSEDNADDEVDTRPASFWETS

B1: huAbF46-H4-A1: affinity-matured humanized anti-c-Met antibody, L3-1 origin (CDR-L3 SEQ ID NO: 13) (antibody)
heavy: EVQLVESGGGLVQPGGSLRLSCAASGFTFTDYYMSWVRQAPGKGLEWLGFIRNKANGYTTEYSASVKGRFTISRDNSKNTLYLQMNSLRAEDTAVYYCARDNWFAYWGQGTLVTVSSASTKGPSVFPLAPSSKSTSGGTAALGCLVKDYFPEPVTVSWNSGALTSGVHTFPAVLQSSGLYSLSSVVTVPSSSLGTQTYICNVNHKPSNTKVDKKVEPKSCDCH[skipping human IgG1 Fc]
light: DIQMTQSPSSLSASVGDRVTITCKSSQSLLASGNQNNYLAWHQQKPGKAPKMLIIWASTRVSGVPSRFSGSGSGTDFTLTISSLQPEDFATYYCQQSYSRPYTFGQGTKVEIKRTVAAPSVFIFPPSDEQLKSGTASVVCLLNNFYPREAKVQWKVDNALQSGNSQESVTEQDSKDSTYSLSSTLTLSKADYEKHKVYACEVTHQGLSSPVTKSFNRGEC
- c-Met degradation degree (c-Met [1]): lowest
- affinity for c-Met (c-Met [2]): highest
- Akt phosphorylation (Akt phosphorylation): lowest
